Assay results reported in publication PMC10731238.
No constants are given. Whether binding was seen depends on the method and setting. Binding seen in cells or lysates may run through a third protein. Some binding calls cover weakened binding; strength is not graded here. Tags and fused reporters may be left off the sequences shown.

Chains of the proteins cited; added tags and fusions are not shown.
UniProt O54943: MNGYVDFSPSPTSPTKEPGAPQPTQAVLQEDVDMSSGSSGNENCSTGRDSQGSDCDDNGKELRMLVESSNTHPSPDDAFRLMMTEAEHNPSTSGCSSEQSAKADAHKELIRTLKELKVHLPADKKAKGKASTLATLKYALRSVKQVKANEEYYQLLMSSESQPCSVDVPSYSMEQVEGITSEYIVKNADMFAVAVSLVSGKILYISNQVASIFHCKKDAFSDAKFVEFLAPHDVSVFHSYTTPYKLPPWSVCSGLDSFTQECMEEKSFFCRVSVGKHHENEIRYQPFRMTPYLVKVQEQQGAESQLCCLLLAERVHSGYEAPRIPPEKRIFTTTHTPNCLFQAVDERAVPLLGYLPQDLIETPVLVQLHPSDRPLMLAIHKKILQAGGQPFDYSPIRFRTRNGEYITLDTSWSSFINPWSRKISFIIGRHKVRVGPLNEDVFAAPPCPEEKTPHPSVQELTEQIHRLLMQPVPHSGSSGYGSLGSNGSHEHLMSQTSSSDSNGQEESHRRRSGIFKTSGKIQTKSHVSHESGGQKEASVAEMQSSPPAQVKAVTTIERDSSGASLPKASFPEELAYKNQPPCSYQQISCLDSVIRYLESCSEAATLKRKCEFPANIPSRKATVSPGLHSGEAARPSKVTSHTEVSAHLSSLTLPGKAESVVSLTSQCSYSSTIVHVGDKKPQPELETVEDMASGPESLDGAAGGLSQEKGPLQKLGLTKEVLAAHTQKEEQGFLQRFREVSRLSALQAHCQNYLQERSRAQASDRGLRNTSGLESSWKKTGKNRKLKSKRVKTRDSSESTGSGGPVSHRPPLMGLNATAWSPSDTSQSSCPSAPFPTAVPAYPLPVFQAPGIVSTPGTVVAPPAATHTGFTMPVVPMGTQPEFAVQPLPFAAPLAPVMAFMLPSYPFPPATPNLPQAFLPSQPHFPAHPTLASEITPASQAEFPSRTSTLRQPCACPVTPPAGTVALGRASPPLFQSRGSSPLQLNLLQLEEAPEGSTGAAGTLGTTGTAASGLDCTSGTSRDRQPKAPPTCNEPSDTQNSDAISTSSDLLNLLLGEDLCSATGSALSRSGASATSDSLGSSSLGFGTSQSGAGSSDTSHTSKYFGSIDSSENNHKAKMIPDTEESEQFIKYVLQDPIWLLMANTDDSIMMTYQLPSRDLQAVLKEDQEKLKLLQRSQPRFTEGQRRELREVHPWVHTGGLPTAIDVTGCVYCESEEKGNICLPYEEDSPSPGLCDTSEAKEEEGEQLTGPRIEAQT
UniProt Q9WTL8: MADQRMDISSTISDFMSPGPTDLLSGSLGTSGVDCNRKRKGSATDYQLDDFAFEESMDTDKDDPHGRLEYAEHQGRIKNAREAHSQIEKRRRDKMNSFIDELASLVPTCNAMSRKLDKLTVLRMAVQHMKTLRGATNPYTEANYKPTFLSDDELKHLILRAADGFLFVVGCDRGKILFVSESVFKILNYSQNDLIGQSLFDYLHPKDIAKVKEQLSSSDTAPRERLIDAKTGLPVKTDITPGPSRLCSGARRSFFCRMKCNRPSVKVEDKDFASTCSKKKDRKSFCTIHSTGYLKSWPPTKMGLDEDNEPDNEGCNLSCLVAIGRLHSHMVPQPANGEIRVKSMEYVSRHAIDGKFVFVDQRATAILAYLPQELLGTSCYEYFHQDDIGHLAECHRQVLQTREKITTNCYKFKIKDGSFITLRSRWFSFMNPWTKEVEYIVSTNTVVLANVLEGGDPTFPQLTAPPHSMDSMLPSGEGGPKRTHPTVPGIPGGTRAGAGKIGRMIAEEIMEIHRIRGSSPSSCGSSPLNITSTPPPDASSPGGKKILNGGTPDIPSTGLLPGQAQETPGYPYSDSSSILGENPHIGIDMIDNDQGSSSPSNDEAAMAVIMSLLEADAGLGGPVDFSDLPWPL

Key:
[1] = molecular target: T1, p.Ser420Phe CRY2 (CRY2-His-Myc variant) (human) (UniProt Q49AN0); assay: co-IP; pairwise: HEK293T with WT or variant Cry2-His-Myc and either Flag-PER2 or Flag-CLOCK alone; MYC resin; Western blot
T1 sequence: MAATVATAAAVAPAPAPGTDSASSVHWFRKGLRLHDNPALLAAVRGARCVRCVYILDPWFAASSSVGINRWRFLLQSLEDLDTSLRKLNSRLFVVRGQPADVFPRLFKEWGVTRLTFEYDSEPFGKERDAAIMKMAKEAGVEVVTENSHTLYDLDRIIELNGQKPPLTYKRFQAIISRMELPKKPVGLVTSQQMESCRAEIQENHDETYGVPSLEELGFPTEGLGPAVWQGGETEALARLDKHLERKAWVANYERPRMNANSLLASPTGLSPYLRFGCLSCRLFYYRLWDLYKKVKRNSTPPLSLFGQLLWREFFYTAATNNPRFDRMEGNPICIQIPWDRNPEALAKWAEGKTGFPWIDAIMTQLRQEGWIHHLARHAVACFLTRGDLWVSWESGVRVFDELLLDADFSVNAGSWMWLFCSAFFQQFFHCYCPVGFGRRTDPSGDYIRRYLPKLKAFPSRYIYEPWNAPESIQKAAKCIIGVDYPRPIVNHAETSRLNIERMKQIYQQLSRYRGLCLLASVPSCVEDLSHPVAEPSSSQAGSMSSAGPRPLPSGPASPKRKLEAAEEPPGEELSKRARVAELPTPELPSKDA

[2] = molecular target: T2, wild-type CRY2 (CRY2-His-Myc) (human) (UniProt Q49AN0); assay: as above
T2 sequence: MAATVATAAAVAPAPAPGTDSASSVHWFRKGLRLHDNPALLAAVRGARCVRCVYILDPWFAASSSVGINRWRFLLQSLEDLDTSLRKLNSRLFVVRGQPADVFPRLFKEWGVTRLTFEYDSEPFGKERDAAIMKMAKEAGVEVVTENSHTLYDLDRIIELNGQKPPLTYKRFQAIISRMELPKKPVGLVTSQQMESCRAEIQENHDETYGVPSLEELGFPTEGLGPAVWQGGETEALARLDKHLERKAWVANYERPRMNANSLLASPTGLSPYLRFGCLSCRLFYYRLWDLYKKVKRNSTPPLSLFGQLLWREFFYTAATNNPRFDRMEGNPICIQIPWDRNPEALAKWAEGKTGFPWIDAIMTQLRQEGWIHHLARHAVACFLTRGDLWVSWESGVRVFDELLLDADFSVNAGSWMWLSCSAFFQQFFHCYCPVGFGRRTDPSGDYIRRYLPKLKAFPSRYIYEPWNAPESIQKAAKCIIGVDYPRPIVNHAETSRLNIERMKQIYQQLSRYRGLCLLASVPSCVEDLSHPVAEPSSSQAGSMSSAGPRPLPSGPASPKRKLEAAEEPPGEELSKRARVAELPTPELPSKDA

[3] = molecular target: T1, p.Ser420Phe CRY2 (CRY2-His-Myc variant) (human); assay: co-IP; HEK293T co-transfected with WT or variant Cry2-His-Myc, Flag-CLOCK, Flag-Bmal1 and pFLAG-CMV-Per2 (PER2 overexpressed); lysis in 15 mM HEPES, 5 mM NaF, 300 mM NaCl, 1% NP-40; anti-c-Myc affinity gel 2 h at 4 °C; Western blot
[4] = molecular target: T2, wild-type CRY2 (CRY2-His-Myc) (human); assay: as above
[5] = molecular target: T2, wild-type CRY2 (CRY2-His-Myc) (human); assay: co-IP; HEK293T co-transfected with WT or variant Cry2-His-Myc, Flag-CLOCK and Flag-Bmal1, without PER2 overexpression; lysis in 15 mM HEPES, 5 mM NaF, 300 mM NaCl, 1% NP-40; anti-c-Myc affinity gel 2 h at 4 °C; Western blot
[6] = molecular target: T1, p.Ser420Phe CRY2 (CRY2-His-Myc variant) (human); assay: as above
[7] = molecular target: T1, p.Ser420Phe CRY2 (CRY2-His-Myc variant) (human); assay: co-IP; HEK293T transfected with WT or variant Cry2-His-Myc, pBind-FBXL3-Gal4 and pFLAG-CMV-FBXL21; lysis in 15 mM HEPES, 5 mM NaF, 300 mM NaCl, 1% NP-40; anti-c-Myc affinity gel 2 h at 4 °C; Western blot
[8] = molecular target: T2, wild-type CRY2 (CRY2-His-Myc) (human); assay: as above

For FLAG-PER2 (from UniProt O54943 1-1257), the binding [1] was “binds”, the binding [2] was “binds” and the binding [3] was “binds”. The binding [4] was “binds”.

For FLAG-BMAL1 (from UniProt Q9WTL8 1-632), the binding [5] was “binds”, the binding [3] was “binds” and the binding [4] was “binds”.

B1: FLAG-CLOCK (protein, UniProt O15516 1-846)
chain: MLFTVSCSKMSSIVDRDDSSIFDGLVEEDDKDKAKRVSRNKSEKKRRDQFNVLIKELGSMLPGNARKMDKSTVLQKSIDFLRKHKEITAQSDASEIRQDWKPTFLSNEEFTQLMLEALDGFFLAIMTDGSIIYVSESVTSLLEHLPSDLVDQSIFNFIPEGEHSEVYKILSTHLLESDSLTPEYLKSKNQLEFCCHMLRGTIDPKEPSTYEYVKFIGNFKSLNSVSSSAHNGFEGTIQRTHRPSYEDRVCFVATVRLATPQFIKEMCTVEEPNEEFTSRHSLEWKFLFLDHRAPPIIGYLPFEVLGTSGYDYYHVDDLENLAKCHEHLMQYGKGKSCYYRFLTKGQQWIWLQTHYYITYHQWNSRPEFIVCTHTVVSYAEVRAERRRELGIEESLPETAADKSQDSGSDNRINTVSLKEALERFDHSPTPSASSRSSRKSSHTAVSDPSSTPTKIPTDTSTPPRQHLPAHEKMVQRRSSFSSQSINSQSVGSSLTQPVMSQATNLPIPQGMSQFQFSAQLGAMQHLKDQLEQRTRMIEANIHRQQEELRKIQEQLQMVHGQGLQMFLQQSNPGLNFGSVQLSSGNSSNIQQLAPINMQGQVVPTNQIQSGMNTGHIGTTQHMIQQQTLQSTSTQSQQNVLSGHSQQTSLPSQTQSTLTAPLYNTMVISQPAAGSMVQIPSSMPQNSTQSAAVTTFTQDRQIRFSQGQQLVTKLVTAPVACGAVMVPSTMLMGQVVTAYPTFATQQQQSQTLSVTQQQQQQSSQEQQLTSVQQPSQAQLTQPPQQFLQTSRLLHGNPSTQLILSAAFPLQQSTFPQSHHQQHQSQQQQQLSRHRTDSLPDPSKVQPQ
For B1, the binding [1] was “binds”, the binding [2] was “binds” and the binding [6] was “binds”. The binding [5] was “binds”, the binding [3] was “binds” and the binding [4] was “binds”.

B2: FLAG-FBXL21 (protein, UniProt Q9UKT6 1-434)
chain: MKRNSLSVENKIVQLSGAAKQPKVGFYSSLNQTHTHTVLLDWGSLPHHVVLQIFQYLPLLDRACASSVCRRWNEVFHISDLWRKFEFELNQSATSSFKSTHPDLIQQIIKKHFAHLQYVSFKVDSSAESAEAACDILSQLVNCSIQTLGLISTAKPSFMNVSESHFVSALTVVFINSKSLSSIKIEDTPVDDPSLKILVANNSDTLRLPKMSSCPHVSSDGILCVADRCQGLRELALNYYILTDELFLALSSETHVNLEHLRIDVVSENPGQIKFHAVKKHSWDALIKHSPRVNVVMHFFLYEEEFETFFKEETPVTHLYFGRSVSKVVLGRVGLNCPRLIELVVCANDLQPLDNELICIAEHCTNLTALGLSKCEVSCSAFIRFVRLCERRLTQLSVMEEVLIPDEDYSLDEIHTEVSKYLGRVWFPDVMPLW
In the case of B2, the binding [7] is reported as “no binding” and the binding [8] is reported as “binds”.

B3: FBXL3-Gal4 (protein, UniProt Q9UKT7 1-428)
chain: MKRGGRDSDRNSSEEGTAEKSKKLRTTNEHSQTCDWGNLLQDIILQVFKYLPLLDRAHASQVCRNWNQVFHMPDLWRCFEFELNQPATSYLKATHPELIKQIIKRHSNHLQYVSFKVDSSKESAEAACDILSQLVNCSLKTLGLISTARPSFMDLPKSHFISALTVVFVNSKSLSSLKIDDTPVDDPSLKVLVANNSDTLKLLKMSSCPHVSPAGILCVADQCHGLRELALNYHLLSDELLLALSSEKHVRLEHLRIDVVSENPGQTHFHTIQKSSWDAFIRHSPKVNLVMYFFLYEEEFDPFFRYEIPATHLYFGRSVSKDVLGRVGMTCPRLVELVVCANGLRPLDEELIRIAERCKNLSAIGLGECEVSCSAFVEFVKMCGGRLSQLSIMEEVLIPDQKYSLEQIHWEVSKHLGRVWFPDMMPTW
For B3, the binding [7] was “no binding” and the binding [8] was “binds”.
